# According to PubChem BioAssay AID1347417 (National Center for Advancing Translational Sciences (NCATS), 2020):
# The whole screen tested about 120,000 compounds, of which about 5,300 (4.4%) were called active. This list was built around the results that the source calls inconclusive (neither active nor inactive); the mix of calls is not that of the screen. The call rests on the fitted dose curve; in most records, active means well fitted inhibition curve with a large enough effect; inconclusive means small, poorly fitted or top-dose-only effect; inactive means no such curve, though single readings can be large or run the other way. A potency beside an inconclusive call is a rough fit, not a confirmed value.
# Test: qHTS Primary assay for Inhibitors of Plasmodium falciparum Dd2 growth in vitro; further: nearly all actives have a fitted effect of over 65% in size
# Conditions: P. falciparum Dd2 growth, SYBR Green, 72 h; series mostly up to 28.9 µM
# How it was run: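 Readout: SYBR Green fluorescence, 485 nm excitation, 535 nm emission, after ~16 h lysis at 37C. Before that, Dd2-infected red cells (2.5% hematocrit) grew 72 h with compound, 29 uM top final concentration.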
# Potency means the concentration at half of the fitted maximal effect; tags describe the fitted curve by direction and shape.
row,Structure (SMILES),Potency
1,C[S+](=O)([O-])c1ccc(CC(=O)N2CC(COc3ccccc3)C3(C2)CN(c2ccccc2)C3)cc1 (stereo unspecified),"inconclusive: 0.282 µM [inhibitor, partial curve, poor fit]"
2,Clc1ccc(C2CN(c3cc(C4CC4)ncn3)CCO2)cc1 (stereo unspecified),inactive
3,COC(=O)c1ccc(OCC(O)Cn2cnc3cc(C)c(C)cc32)cc1 (stereo unspecified),"inconclusive: 14.1 µM [inhibitor, single point]"
4,Cc1nc(-c2ccccc2)n(CC(=O)Nc2ccccc2)c(=O)c1CCO,"inconclusive: 17.8 µM [inhibitor, single point]"
5,COc1cccc(-c2ccc(C(=O)N3CCC4(CCCN(C)C4=O)C3)o2)c1 (stereo unspecified),"inconclusive: 7.08 µM [inhibitor, partial curve]"
6,O=C1CO[C@H]2CCN(Cc3cccc(OC(F)(F)F)c3)CC[C@@H]2N1CCN1CCCC1,"inconclusive: 5.01 µM [inhibitor, partial curve, poor fit]"
7,NC(=O)[C@H]1C[C@@H](O)[C@H](O)[C@H]2[C@@H]1SC(=Nc1ccccc1)N2CC1CCCCC1,"inconclusive: 11.2 µM [inhibitor, partial curve, poor fit]"
8,CCOc1ccc(CCNC(=O)Cn2ccn3nc(-c4ccccc4)c(CO)c3c2=O)cc1OCC,inactive
9,CCc1ccc(NC(=O)N2CCCC(c3noc(COc4ccccc4F)n3)C2)cc1 (stereo unspecified),inactive
10,Cc1ccc(NC(=O)CS(=O)(=O)c2nc(-c3ccc(C)cc3)cn2-c2ccc(C)cc2)cc1,"inconclusive: 20 µM [inhibitor, partial curve, poor fit]"
11,O=[S+]1([O-])NCC2(CCN(CC3CCCC3)CC2)Oc2ncccc21,"inconclusive: 10 µM [inhibitor, single point]"
12,Cc1nc(-n2nc(C)c(Cc3ccccc3Cl)c2C)sc1C(=O)N1CCCCC1C (stereo unspecified),"inconclusive: 11.2 µM [inhibitor, single point]"
13,COc1ccc(NC(=O)N2C[C@@H]3C[C@H](C2)c2ccc(NC(=O)Nc4cccc(C#N)c4)c(=O)n2C3)cc1,"inconclusive: 3.98 µM [inhibitor, single point]"
14,COc1ccc(-c2nc(C(=O)Nc3cccc(C(C)=O)c3)nn2-c2ccc(Cl)cc2)cc1,"inconclusive: 8.91 µM [inhibitor, single point]"
15,COc1ccc(CN2Cc3[nH]cnc3C[C@H]2c2nc(C(C)C)no2)cc1,inactive
16,CN1CCCC1CCNc1nccc(-c2cnn(-c3ccccc3F)c2)n1 (stereo unspecified),"inconclusive: 17.8 µM [inhibitor, single point]"
17,O=C(CCn1ccn2nc3c(c2c1=O)CCCC3)Nc1ccc(F)cc1Br,"inconclusive: 17.8 µM [inhibitor, single point]"
18,Cc1nc(-c2ccc(C(F)(F)F)cc2)cc([C@H]2CN3CC[C@H]2C[C@@H]3CNC(=O)c2ccco2)n1,"inconclusive: 2.82 µM [inhibitor, partial curve, poor fit]"
19,CCN(CC)S(=O)(=O)N(C)CC1CCCN(CCc2ccccc2OC)C1 (stereo unspecified),active: 2.82 µM
20,COc1ccc(CN[C@@H]2C=C[C@@H](c3c(C)nn(-c4ccc(OC)cc4)c3C)C2)cc1,"inconclusive: 1.58 µM [inhibitor, full curve, poor fit]"
21,COc1ccccc1-c1nnc2n1C(C(=O)N1CCOCC1)CC2 (stereo unspecified),inactive

row,Structure (SMILES),Potency
1,CCS(=O)(=O)N1CCc2cc(C(=O)NC(C)c3ccccc3)ccc21 (stereo unspecified),"inconclusive: 17.8 µM [inhibitor, single point]"
2,O=c1c2sc3ccccc3c2n(Cc2cccc(C(F)(F)F)c2)c(=O)n1-c1ccccc1,"inconclusive: 17.8 µM [inhibitor, single point]"
3,COC(=O)c1cn([C@H]2CO[C@H]3[C@@H]2OC[C@@H]3NC(=O)C2CC2)nn1,"inconclusive: 3.55 µM [inhibitor, partial curve]"
4,COCC1CN(C2CCC2)CC12CCN(C(=O)COc1ccc(F)cc1)CC2 (stereo unspecified),"inconclusive: 7.94 µM [inhibitor, partial curve]"
5,CN(C)CCN(C)C(=O)c1cc(-c2ccccc2F)cc2c1OCCN2Cc1cccnc1,"inconclusive: 1.26 µM [inhibitor, partial curve, poor fit]"
6,CCOc1ccccc1NC(=O)Cn1nc2n(c1=O)CCCC2,inactive
7,COc1ccc(-c2noc(-c3cccn3CC(=O)Nc3cccc(Cl)c3C)n2)cc1F,"inconclusive: 1.58 µM [inhibitor, full curve, poor fit]"
8,O=C(c1ccc2c(c1)N(Cc1cccc(Cl)c1)C(=O)c1ccccc1S2(=O)=O)N1CCc2ccccc21,"inconclusive: 17.8 µM [inhibitor, single point]"
9,COc1ccc(C2(C(=O)N3CCCC(c4nc(-c5cccnc5)no4)CCNC(=O)CC3)CC2)cc1 (stereo unspecified),"inconclusive: 5.01 µM [inhibitor, partial curve, poor fit]"
10,COCc1nc(-c2ccc(OC3CN(S(=O)(=O)c4ccccc4C)C3)cc2)no1,"inconclusive: 0.282 µM [inhibitor, full curve]"
11,Cc1ccc(C(=O)N2CCC(c3n[nH]c(=O)n3Cc3ccc(F)cc3)CC2)cc1C,"inconclusive: 11.2 µM [inhibitor, partial curve, poor fit]"
12,CCOc1ccc2c(n1)CCN(C(=O)c1ccc(C(C)C)cc1)C2,"inconclusive: 8.91 µM [inhibitor, single point]"
13,CCC(CC)n1c(=O)n(C[C@@H](O)CO)c2cc(C(=O)O)cnc21,inactive
14,OC1(c2csc(CN3CCc4ccccc4C3)n2)CCN(C2CCC2)CC1,active: 10 µM
15,O=C(CCc1cc(Cl)no1)N1CCCC(Cc2nncn2Cc2ccccc2)C1 (stereo unspecified),"inconclusive: 3.16 µM [inhibitor, partial curve]"
16,Cc1ccc(C(=O)N2CCN(c3cccc(Cl)c3)CC2)cc1-n1c(C)nc2cccnc21,"inconclusive: 17.8 µM [inhibitor, single point]"
17,O=S(=O)(c1cccnc1)N1CCCCC1CCc1cccs1 (stereo unspecified),"inconclusive: 2 µM [inhibitor, partial curve, poor fit]"
18,Cc1nnc(C2CCCCCN2S(=O)(=O)c2cccnc2)o1 (stereo unspecified),inactive
19,Cc1ccsc1C(=O)N1C[C@@H](Oc2cccnc2)C[C@@H]1C(=O)N1CCOCC1,"inconclusive: 2.24 µM [inhibitor, single point]"
20,Cc1cc(C(=O)N[C@@H]2C[C@H](COc3ccc(S(C)(=O)=O)cc3)[C@@H](O)[C@H]2O)nn1C,inactive
21,CCOC(=O)c1cn(C2CN(S(=O)(=O)Cc3ccccc3)C2)nn1,"inconclusive: 8.91 µM [inhibitor, partial curve]"

row,Structure (SMILES),Potency
1,COc1ccc(C(=O)N2CCCC3(C2)NC(=O)N(Cc2cc(C)ccc2C)C3=O)cc1F (stereo unspecified),"inconclusive: 12.6 µM [inhibitor, single point]"
2,CN(Cc1ccc(CCN)cc1)Cc1cccc(-n2cccn2)c1,"inconclusive: 20 µM [inhibitor, single point]"
3,CCOC(=O)c1ccc(CN(Cc2ccc(F)cc2)S(=O)(=O)c2ccc(F)c(C(=O)Nc3ccccc3C(F)(F)F)c2)cc1,"inconclusive: 17.8 µM [inhibitor, single point]"
4,COC(=O)c1cn([C@H]2CO[C@H]3[C@@H]2OC[C@@H]3NCc2ccccc2)nn1,inactive
5,O=C(NC1CCN(c2cc(-c3cccs3)[nH]n2)C1)c1cccs1 (stereo unspecified),"inconclusive: 0.794 µM [inhibitor, full curve, poor fit]"
6,CCn1cnnc1CC1CCN(C(=O)C2CCN(Cc3nc(-c4cccc(C)c4)oc3C)CC2)CC1,active: 3.16 µM
7,COc1ccc(CC(=O)N2CCc3nc(C(C)C)nc(-c4ccc(OC)cc4)c3CC2)cc1,"inconclusive: 3.98 µM [inhibitor, single point]"
8,CCC(=O)N1CCC(c2ncc(C)n2Cc2ccccc2)C1 (stereo unspecified),inactive
9,Cc1ccc(NC(=O)N2CCCC(c3nc(-c4cccnc4)no3)CCNC(=O)CC2)cc1C (stereo unspecified),"inconclusive: 7.94 µM [inhibitor, partial curve]"
10,CC1=C[C@@H](CNC(=O)CCC(=O)O)[C@H](C(C)C)C[C@H]1CC(=O)N(C)Cc1ccccc1,"inconclusive: 2.51 µM [inhibitor, full curve]"
11,O=C(c1ccn(C(F)F)n1)N1CCc2nc(-c3ccc(Cl)cc3)[nH]c2C1,active: 12.6 µM
12,COc1ccc(CN2C=C(C(=O)OCc3nc(-c4ccccc4)no3)C(C)=NS2(=O)=O)cc1,inactive
13,CN1CCN(c2ccc3ncc(Nc4ccccc4F)n3n2)CC1,inactive
14,COc1ccc(-c2nnc3n2CCN(C(=O)NC2CCCC2)C3)cc1,"inconclusive: 10 µM [inhibitor, partial curve]"
15,Cc1cc(C)n2c(Nc3ccc4c(c3)OCCO4)c(-c3ccccc3)nc2n1,"inconclusive: 20 µM [inhibitor, single point]"
16,COc1ccc(N2CCN(CCCNC(=O)c3nnc(Cc4ccccc4Cl)o3)CC2)cc1,"inconclusive: 17.8 µM [inhibitor, single point]"
17,Cc1ccc(C2=NC3(CCN(C(=O)CCc4ccccc4)CC3)ON2)cc1,"inconclusive: 3.98 µM [inhibitor, single point]"
18,O=C(c1cnccn1)N1CC(F)(F)C[C@H]1c1nc(-c2ccccc2)no1,"inconclusive: 17.8 µM [inhibitor, single point]"
19,CCN(CC)C(=O)c1sc2c(c1C)c(=O)n(-c1ccc(C)c(C)c1)c(=O)n2CC(=O)Nc1ccc(OC)cc1OC,"inconclusive: 5.01 µM [inhibitor, partial curve, poor fit]"
